From the supplement of paper PMC11417369
± gives the standard deviation of the averaged measurements. The list shows a part of the results.

Test system: PfAP2-LT AP2 domain (GST-tagged)
Assay: gcPBM binding intensity (ln(normalized median fluorescence intensity)); higher = stronger DNA binding
How it was run: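 Plasmodium falciparum DNA-binding domains carrying a GST tag were expressed in E. coli and applied for 1 h, at about 25 μg on average, to an Agilent 4 × 180k array. The array held primer-extended double-stranded 36-bp intergenic genomic probes together with negative controls, and binding took place in 1× PBS with 1% milk, 0.2 mg/ml BSA, 0.5% salmon testes DNA and 0.03% Triton X-100. An Alexa488 anti-GST antibody detected bound protein, and the array was scanned at 488 nm. Binding intensity is taken as the highest Masliner-normalised natural-log median intensity across replicate spots of either probe orientation.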

Row | Sequence | gcPBM binding intensity (ln)
1 | TTTTTTTTTTTAGACACATGCATTTTTATAATTTTC [TGCATGCA_site843] | 8.7 ± 0.53
2 | TGCAACAAAATAAACACACACACACTAGCACAAAAA [CACACA_site5805] | 9.99 ± 0.14
3 | TAAATGAAAATATGTACACACTTGAAAACTTTTATG [CACACA_site7388] | 8.87 ± 0.43
4 | TTGAATTATAAGAATAAACACACAAGCTTAAAAAAA [CACACA_site8318] | 8.71 ± 0.54
5 | GAATTATAAATTATAGTGCATAAAATTATGGCATAA [GTGCAC_site9938] | 8.69 ± 0.47
6 | TCAAAACATTATTCCATACACACCATACTTTTTAAT [CACACA_site2770] | 8.89 ± 0.43
7 | CCCACAGACGGACACACACACATATATATATATATA [CACACA_site4351] | 10.4 ± 0.22
8 | TATTTAAATTTGTATAATGGACGAATTATATAGAAA [GTGCAC_negctrl_site650] | 8.38 ± 0.49
9 | TTAATAATAAAAAGGAGTACACTAATATACTATAAA [XGTACX_site2346] | 8.65 ± 0.52
10 | TTAAGAAACAAAGAAAGTACACAACATAATATAGAA [XGTACX_site477] | 8.92 ± 0.49
11 | ATATAATATATATATAAACACACAAAAAAAATTATA [CACACA_site8434] | 8.97 ± 0.45
12 | AATAAAATCATCTATACACACAAAAAAAATAAGAAA [CACACA_site2101] | 8.93 ± 0.47
13 | CCTCATAAGTTCTTATGTACGTATTGTTCACCTTTA [XGTACX_site6640] | 8.9 ± 0.49
14 | CTGTAAAAAATATAAACACACATAGAAATATATAAA [CACACA_site340] | 8.97 ± 0.49
15 | TACAACCTTATAATTAGTACTTAGTTATGCTGTAAA [XGTACX_site6052] | 8.61 ± 0.43
16 | TTTATTTGTGCATATACACACTTAAATATGTTTATT [CACACA_site7772] | 9 ± 0.45
17 | TTTAATTTTTTTTATAGTACATAAAAAATAAAAAAA [XGTACX_site5631] | 8.11 ± 0.43
18 | ATTATAATACTTTGTATGCACTAATCAATTATTAAA | 8.47 ± 0.43
19 | CCGATATAATGGAAAACACACAAAAGATATTTATAT [CACACA_site7293] | 8.94 ± 0.48
20 | ACATAAAATTGGAGCAAACACACAAGGTTGAAATTA [CACACA_site505] | 9.05 ± 0.51
21 | TTTGTTATGGTTTTCTCACACATATATATATATATA [CACACA_site4617] | 9.36 ± 0.014
22 | TTATGTTGTAAATGCACACATACAAATACATATACA [CACACA_site1368] | 9.06 ± 0.25
23 | TACAATATAAAATACACACGCACACCGAAAAAAAAA [CACACA_site5865] | 9.52 ± 0.28

Row | Sequence | gcPBM binding intensity (ln)
24 | TTTTCTATATAGTGTTGTACATTATTGTGTAAAAAT [XGTACX_site3223] | 8.7 ± 0.46
25 | ATATTTTATACTTGCACACAAAATATATTAAAATGG [CACACA_site5139] | 8.86 ± 0.35
26 | ATAAAATTGGAGCAAACACACAAGGTTGAAATTAAC [CACACA_site506] | 9.12 ± 0.56
27 | TATATGGTATGTATTACACACATATCACATATATAT [CACACA_site3045] | 9.28 ± 0.33
28 | TGGTAAATTGAGAATCGTACATTAAAAAACATAAAA [XGTACX_site3253] | 8.62 ± 0.49
29 | GGAATGGTACATGATACACACACGCACATATAAATA [CACACA_site7581] | 9.48 ± 0.48
30 | ATTTATTAAAAGAAATGTACAGAAAATGTTTGGAAT [XGTACX_site7187] | 8.79 ± 0.38
31 | AAGAAAAAAAAGATAATAATAATAATAATAAAATGA [TGCATGCA_negctrl_site398] | 8.71 ± 0.45
32 | ATTTAATATCACAATATATTTTTTACCCTTATCAGC [CACACA_negctrl_site491] | 8.63 ± 0.59
33 | TTTTTTTCATAAATTAGGTAATGTCGCAGGGGGACA [TGCATGCA_negctrl_site556] | 9.09 ± 0.12
34 | AAAGAATTGTATAAAAGTACATATTTGTTTGTTTTA [XGTACX_site7380] | 8.62 ± 0.5
35 | TAAAAAATAAAATACACACACATATATATATATATA [CACACA_site1323] | 9.9 ± 0.057
36 | TATATTCTTTTTTTAACACACAAAAAAAATAAAATA [CACACA_site1898] | 8.38 ± 0.31
37 | GAGGGAAAAAATAATCGTACAAAGAAAAAAAAAAAT [XGTACX_site7361] | 9.05 ± 0.59
38 | AAAAAAATTAAAGATTGTACTTGATTTTTCATTTTA [XGTACX_site6685] | 8.4 ± 0.44
39 | AGTAGTATGGAGAAAAGTACATAGTATCTGATAACC [XGTACX_site2040] | 8.98 ± 0.54
40 | GACTGAACAACATAATGTACATTTATAAGTATATAT [XGTACX_site3813] | 8.95 ± 0.4
41 | TATATATTATATATATGTACTTATTCATATATATAA [XGTACX_site3860] | 8.64 ± 0.37
42 | CTTTAATATATTTAAGTGCAAAACTAATATGTAAAG | 8.61 ± 0.48
43 | AAAGAAAAAGAAAAAGAAAAAATAAAATAAAATAAA [CACACA_negctrl_site872] | 8.43 ± 0.54
44 | TATTTAAAAACAAAAAGTACTAATATATATTTATAC [XGTACX_site1422] | 8.39 ± 0.46
45 | ATTACCAACAGATCTTGTACATATTAAAGCATCTTA [XGTACX_site2361] | 8.62 ± 0.43
46 | CAAATACACCAACACACACACACAAAAAAAAAAAAA [CACACA_site514] | 9.99 ± 0.38

Row | Sequence | gcPBM binding intensity (ln)
47 | TAAGTACGACTTGACACACATACACATATATATATA [CACACA_site1286] | 9.46 ± 0.26
48 | TGAAAGAATAGAATGAGTACTAATTTAAATTACACT [XGTACX_site1120] | 8.71 ± 0.52
49 | TTCTTTATATATTTTTGTACATATTTATTTTTAGAG [XGTACX_site6757] | 8.79 ± 0.52
50 | TTGATTTCATTTTAAGTGCATAACTAATATTATATA [GTGCAC_site9713] | 8.48 ± 0.42
51 | ATATACAAAGAAGCAGTGCATATTTTCTTATTTATG [GTGCAC_site9567] | 8.82 ± 0.36
52 | TCTTTGGTAATATATATGTATAAATATAAATATATA [CACACA_negctrl_site1566] | 8.27 ± 0.41
53 | ATATATATATATGTTAGTACATAACAAGTGTGCATA [XGTACX_site1527] | 9.32 ± 0.21
54 | ATAAAACAAGCAAATCGTACAAAAGGATAATATATA [XGTACX_site5592] | 9.15 ± 0.54
55 | AAAAAAAAAAAAAACACACACACACCCATACCCATA [CACACA_site5577] | 10.215 ± 0.0071
56 | ATGTATGGTTTATATGTTCATTTGTTCACCTATTTA [CACACA_negctrl_site1533] | 9.21 ± 0.51
57 | TTAGGTAGAAAAAAGACACACACATTATATATATAT [CACACA_site8016] | 9.45 ± 0.23
58 | ATATATATTTAAGAGGGTACAAAAATTTATGAGCAT [XGTACX_site6156] | 8.77 ± 0.43
59 | TATACATATTTATACACACACACATATATTTATATA [CACACA_site6727] | 9.565 ± 0.078
60 | AAAAAATAAAAAATATGTACACATTCAAAATTTTAC [XGTACX_site8479] | 8.8 ± 0.5
61 | TGTGCTTATCCTAACACACACAACATATAAGAAAAA [CACACA_site3319] | 9.08 ± 0.42
62 | AAAAAGAAAAAAAACACACACAAATATAAATAAATA [CACACA_site1183] | 9.24 ± 0.49
63 | ATATATATATATATATGTACATATTACATTACTTAT [XGTACX_site749] | 9.51 ± 0.33
64 | GATAAAATGAGACCAGTGCATTATTAGTTGTACACC | 9.04 ± 0.43
65 | TTTTTTGCTAAGTGTACACAAATGTTTATTAATTTA [CACACA_site5859] | 8.62 ± 0.43
66 | GTAATATTAAAATATACACACATAGAATATATATAT [CACACA_site4391] | 9.07 ± 0.31
67 | ATAATCATAAAATAAACACACATATATAAATATATT [CACACA_site276] | 8.94 ± 0.38
68 | TTTTTTATATTGTGATGTACAAATTTTAAAATGTAG [XGTACX_site1875] | 8.4 ± 0.4
69 | GTGTGGAGTTACAAAGAGGAGAACCTCACAGTAATC [CACACA_negctrl_site527] | 8.92 ± 0.55

Row | Sequence | gcPBM binding intensity (ln)
70 | TTACTCTTTATATAATGTACATATATATATATATTA [XGTACX_site2624] | 8.84 ± 0.43
71 | AAATTCGTTATAAAAACATGCAACGATCAACATTGT [TGCATGCA_site844] | 8.79 ± 0.4
72 | TTATGTGATAAAAAAAAAATACAACAAAGTTAAATA [GTGCAC_negctrl_site36] | 8.58 ± 0.48
73 | ATATATATATATATAATACACACTTATGAAATGTCT [CACACA_site1827] | 9.22 ± 0.17
74 | TATAAAGGTTGGTACTGTACAATATAAGAAAAAAAA [XGTACX_site435] | 8.73 ± 0.55
75 | ATCATTCATTTAACAACACACAACATATTTATCATA [CACACA_site1041] | 8.94 ± 0.42
76 | AAATAGTTCATAAAAAGTACAAAATTTTTATCCGTA [XGTACX_site2796] | 8.64 ± 0.52
77 | TATATATTATATAAGAGTACATATAATTATAGTTTT [XGTACX_site5039] | 8.49 ± 0.34
78 | TTTATTTTGACAGATTGTACACTTTATACATGTTTT [XGTACX_site2356] | 9.1 ± 0.56
79 | AATCTATATTAATACACACACACATATATTTATATA [CACACA_site7732] | 9.54 ± 0.28
80 | TGAAAAAAGAAAAATACACACATATAACATAATATA [CACACA_site7126] | 9.1 ± 0.3
81 | GTATATATTTCCAGAAGTACTTATTTTTATGTATGT [XGTACX_site4079] | 8.92 ± 0.4
82 | TTATATTTATTGATATGTACATATTATAATTAATTA [XGTACX_site586] | 8.52 ± 0.41
83 | TTTTAATATTTTGCCTGTACATAAAAGTGAGAAGAT [XGTACX_site2503] | 8.73 ± 0.54
84 | AAAAATGCCAGAAAACGTACTCGGATTTTCTAATAT [XGTACX_site6552] | 8.71 ± 0.49
85 | TGATTACATATGATGTGTACCTAATTTTGTTTACAC [XGTACX_site7032] | 9.14 ± 0.51
86 | ACTATATATATAAGTGCATGTTCATTATACCTAAAG [TGCATGCA_site696] | 8.83 ± 0.42
87 | AGTAAATTATATATCTGTACATATATATATGTGTAT [XGTACX_site5519] | 9.04 ± 0.28
88 | TTTTAAAAAAATATAATACACACCAAAAATATGCAC [CACACA_site2131] | 8.86 ± 0.35
89 | AAAAATTCATTTTTATGTACGTACAAATTCTTCGTT [XGTACX_site2471] | 8.7 ± 0.57
